# The full ranking holds about 33,000 sequences; the median of “E-score (-0.5 to 0.5)” is about -0.021, and the highest 2% start at about 0.32. Some of the results follow.
# Target: T1, Zap1 (UniProt P47043)
# T1 sequence: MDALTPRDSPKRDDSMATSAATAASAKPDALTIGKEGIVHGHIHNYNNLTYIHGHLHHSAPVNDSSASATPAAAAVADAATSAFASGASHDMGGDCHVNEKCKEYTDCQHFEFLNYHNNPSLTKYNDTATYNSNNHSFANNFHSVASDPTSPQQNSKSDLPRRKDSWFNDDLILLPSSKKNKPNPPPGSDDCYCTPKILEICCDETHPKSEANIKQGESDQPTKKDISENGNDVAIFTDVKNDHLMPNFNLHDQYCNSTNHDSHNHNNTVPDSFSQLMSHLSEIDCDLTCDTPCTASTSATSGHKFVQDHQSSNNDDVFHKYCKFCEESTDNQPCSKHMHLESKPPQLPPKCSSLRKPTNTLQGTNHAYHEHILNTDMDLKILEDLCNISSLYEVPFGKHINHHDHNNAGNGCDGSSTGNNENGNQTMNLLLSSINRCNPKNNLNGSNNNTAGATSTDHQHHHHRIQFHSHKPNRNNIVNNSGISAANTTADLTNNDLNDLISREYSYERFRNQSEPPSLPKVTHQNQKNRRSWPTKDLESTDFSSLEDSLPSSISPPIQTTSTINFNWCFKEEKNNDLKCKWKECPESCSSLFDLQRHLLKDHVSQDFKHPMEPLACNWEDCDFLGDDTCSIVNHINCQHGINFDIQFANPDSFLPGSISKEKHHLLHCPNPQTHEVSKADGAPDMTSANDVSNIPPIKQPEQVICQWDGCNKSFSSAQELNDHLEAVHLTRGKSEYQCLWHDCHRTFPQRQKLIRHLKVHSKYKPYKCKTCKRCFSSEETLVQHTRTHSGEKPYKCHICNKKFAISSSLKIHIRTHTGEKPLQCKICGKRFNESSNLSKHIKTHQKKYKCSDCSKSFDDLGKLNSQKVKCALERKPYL
# Experiment: PBM E-score (8-mer binding enrichment) (E-score (-0.5 to 0.5)); higher = stronger / more preferred TF binding; most listed sequences are background and not binding sites
# Conditions: protein concentration: 200 nM; construct: GST-full length
# Outline: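 The E-score, a modified Wilcoxon-Mann-Whitney statistic, was computed by the Universal PBM Analysis Suite for every ungapped eight-base word pooled with its reverse complement. Scans behind it were normalised with masliner after bound GST-tagged yeast transcription factors were detected with fluorescent anti-GST. The proteins, at about 100-200 nM, had been applied to universal all-10-mer Agilent arrays made double-stranded by primer extension.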
row,Sequence,PBM E-score
1,CATTACAA,-0.0413
2,AAACTGGA,-0.0165
3,CAGTATGG,-0.068
4,TCAACCGA,0.0646
5,CGATCGTC,-0.00989
6,CAGCGTAA,-0.0388
7,CCACAGTC,-0.166
8,AAACATAT,0.201
9,AAGTGCCA,-0.118
10,GTTGTGGA,0.133
11,CGAAAAAC,0.154
12,GGATGCAA,0.0164
13,CCCGTCCC,-0.137
14,CAAGGCTC,-0.353
15,CGAGCATA,-0.143
16,GTAACTGA,-0.0518
17,AGGTCTGG,-0.0286
18,AAGACACT,-0.11
19,ATGAGAAT,-0.0179
20,CGCGAGCG,-0.207
21,ATATACCC,0.228
22,AGTTCTTA,0.0253

row,Sequence,PBM E-score
1,CTATACAG,-0.0315
2,CGCACGAG,-0.205
3,CACGTCTA,0.00514
4,GGTTATAC,0.461
5,CACTGCTC,-0.0463
6,CGGTGCGC,-0.0033
7,AATCCGTA,-0.17
8,GCACCCTA,0.297
9,AATCTTTC,0.0271
10,GTATGAAC,0.128
11,AATCACTG,0.0527
12,ACACTCGG,-0.113
13,GCTGGGAC,-0.313
14,ATACACTG,-0.171
15,GACATACC,0.101
16,AGAAAGCT,-0.0049
17,CCGCTAGA,-0.135
18,CTGGATGA,-0.138
19,GGGACTGA,-0.168
20,AGAAGGTG,0.213
21,AGTAGGAG,-0.192
22,GGGGTAAA,0.269

row,Sequence,PBM E-score
1,AACAGTCC,-0.225
2,AGATCGCA,-0.127
3,AGGAAGCG,-0.13
4,ACGGACCT,0.0309
5,GGCGGGCA,-0.115
6,ACGCCCAG,-0.145
7,CCGCACCC,0.177
8,CGCCGACC,-0.168
9,AGGCATCA,-0.153
10,CGAAGAGA,0.0227
11,TCAGATAA,0.0687
12,TATATGCA,0.052
13,CGCCAGCA,-0.24
14,CAACAACA,0.0865
15,GTAGTAGA,0.0536
16,CGGAGCAG,-0.186
17,ATGCCTCA,-0.251
18,CAGTGGAC,-0.0561
19,GCTGGCGA,-0.192
20,AGTACGAA,0.0797
21,TAGTCGAA,-0.174
22,CTACATAC,0.0497

row,Sequence,PBM E-score
1,ATGCCACC,-0.11
2,CGGCGAGA,-0.0754
3,ATTATAGC,-0.00614
4,CCTGCATC,-0.0964
5,AATGCCAG,-0.126
6,ACGATACT,-0.112
7,ATGCGTAG,-0.103
8,CTACGGCA,-0.121
9,GATTTAAC,0.00999
10,GTCGTTCA,-0.0173
11,CCGGCCAA,-0.161
12,GGTTTCTA,0.158
13,CTGTGTTA,-0.0318
14,ATTATCCA,0.107
15,ATCACTTA,0.00193
16,GTGGGGCA,0.0703
17,GGCTCTGA,-0.167
18,ATTAATCG,0.112
19,TCTCATCA,0.0193
20,CTGTAGGC,-0.118
